Results are given in words; binding and its absence hold for the method and conditions named. Binding seen in cells or lysates may run through a third protein. Some entries that bind do so weakly or less than the wild type. For some assays here: Sequences can lack the tags named with a protein.
Tests used:
Test in all cases: co-IP
[1] = target: T1, SFB-tagged UL76 (human cytomegalovirus (HCMV)) (UniProt P16725)
T1 sequence: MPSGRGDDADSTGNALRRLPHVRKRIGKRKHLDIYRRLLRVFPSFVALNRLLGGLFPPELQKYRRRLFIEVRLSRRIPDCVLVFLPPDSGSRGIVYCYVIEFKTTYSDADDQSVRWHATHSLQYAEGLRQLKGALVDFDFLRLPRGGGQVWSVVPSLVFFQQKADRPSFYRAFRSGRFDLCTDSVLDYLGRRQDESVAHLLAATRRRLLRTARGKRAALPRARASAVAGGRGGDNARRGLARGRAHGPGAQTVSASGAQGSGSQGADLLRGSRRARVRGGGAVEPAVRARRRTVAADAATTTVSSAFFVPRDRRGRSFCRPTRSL

Chains of the proteins cited; added tags and fusions are not shown. Lines headed by an entry give the natural chain unless they say otherwise; changes in a name come on top. A line that says so, or that is headed by a name, gives the form on record, which may keep a tag or linker. Residues count along the entry.
UniProt P09874: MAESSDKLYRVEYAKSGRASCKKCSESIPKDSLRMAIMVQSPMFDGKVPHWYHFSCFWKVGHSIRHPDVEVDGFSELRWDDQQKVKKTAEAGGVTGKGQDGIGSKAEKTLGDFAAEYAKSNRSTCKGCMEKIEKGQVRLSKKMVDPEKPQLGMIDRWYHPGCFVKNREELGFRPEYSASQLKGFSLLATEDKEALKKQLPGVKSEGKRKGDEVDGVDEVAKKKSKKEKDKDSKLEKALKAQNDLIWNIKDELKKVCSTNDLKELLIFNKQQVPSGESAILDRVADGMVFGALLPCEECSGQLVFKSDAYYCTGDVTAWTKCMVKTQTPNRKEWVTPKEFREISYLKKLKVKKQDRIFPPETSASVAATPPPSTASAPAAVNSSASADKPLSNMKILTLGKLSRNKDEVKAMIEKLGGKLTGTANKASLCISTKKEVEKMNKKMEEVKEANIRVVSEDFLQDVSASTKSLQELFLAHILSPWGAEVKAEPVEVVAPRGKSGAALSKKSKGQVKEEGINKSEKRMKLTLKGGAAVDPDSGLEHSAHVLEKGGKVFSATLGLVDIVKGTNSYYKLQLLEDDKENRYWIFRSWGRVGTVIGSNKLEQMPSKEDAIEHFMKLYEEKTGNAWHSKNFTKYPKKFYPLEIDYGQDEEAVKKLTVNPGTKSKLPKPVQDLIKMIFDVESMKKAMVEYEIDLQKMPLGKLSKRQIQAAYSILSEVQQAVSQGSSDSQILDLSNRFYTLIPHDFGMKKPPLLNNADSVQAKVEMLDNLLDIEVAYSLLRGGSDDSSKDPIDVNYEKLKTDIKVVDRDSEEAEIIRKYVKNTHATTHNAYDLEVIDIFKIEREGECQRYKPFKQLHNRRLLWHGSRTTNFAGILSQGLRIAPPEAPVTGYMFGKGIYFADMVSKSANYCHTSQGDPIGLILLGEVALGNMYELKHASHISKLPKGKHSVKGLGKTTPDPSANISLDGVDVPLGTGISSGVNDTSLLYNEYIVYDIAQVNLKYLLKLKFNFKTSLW
SFB-tagged PARP-1 auto-modification domain (M): residues 216-488 of P09874
GFP-tagged PARP-1 DB (BRCT domain deletion mutant) (P09874, form named): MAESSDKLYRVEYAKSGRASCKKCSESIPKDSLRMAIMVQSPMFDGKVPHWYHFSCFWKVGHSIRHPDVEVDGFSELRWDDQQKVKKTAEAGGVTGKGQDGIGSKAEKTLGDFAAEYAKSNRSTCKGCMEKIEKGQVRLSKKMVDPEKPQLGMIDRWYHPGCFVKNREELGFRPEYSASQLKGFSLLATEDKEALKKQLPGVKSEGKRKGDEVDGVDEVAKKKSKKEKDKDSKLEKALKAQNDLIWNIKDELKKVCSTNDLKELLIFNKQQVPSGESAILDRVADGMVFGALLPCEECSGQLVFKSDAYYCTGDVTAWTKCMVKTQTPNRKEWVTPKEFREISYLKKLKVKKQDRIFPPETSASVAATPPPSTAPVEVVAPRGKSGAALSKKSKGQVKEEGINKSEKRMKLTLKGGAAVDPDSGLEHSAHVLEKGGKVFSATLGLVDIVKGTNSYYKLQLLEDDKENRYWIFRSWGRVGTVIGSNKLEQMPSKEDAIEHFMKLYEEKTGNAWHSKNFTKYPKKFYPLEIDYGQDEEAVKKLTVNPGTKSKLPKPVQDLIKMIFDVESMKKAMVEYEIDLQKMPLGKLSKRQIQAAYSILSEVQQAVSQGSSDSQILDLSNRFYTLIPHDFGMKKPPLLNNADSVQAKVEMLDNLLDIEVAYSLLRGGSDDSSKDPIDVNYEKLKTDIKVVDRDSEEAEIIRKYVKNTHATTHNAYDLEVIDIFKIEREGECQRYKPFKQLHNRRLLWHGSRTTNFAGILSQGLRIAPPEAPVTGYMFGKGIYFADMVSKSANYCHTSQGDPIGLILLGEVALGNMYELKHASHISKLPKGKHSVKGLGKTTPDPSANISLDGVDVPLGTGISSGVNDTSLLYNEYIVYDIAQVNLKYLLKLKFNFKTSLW
SFB-tagged PARP-1 DM (deletion of the auto-modification domain) (P09874, form named): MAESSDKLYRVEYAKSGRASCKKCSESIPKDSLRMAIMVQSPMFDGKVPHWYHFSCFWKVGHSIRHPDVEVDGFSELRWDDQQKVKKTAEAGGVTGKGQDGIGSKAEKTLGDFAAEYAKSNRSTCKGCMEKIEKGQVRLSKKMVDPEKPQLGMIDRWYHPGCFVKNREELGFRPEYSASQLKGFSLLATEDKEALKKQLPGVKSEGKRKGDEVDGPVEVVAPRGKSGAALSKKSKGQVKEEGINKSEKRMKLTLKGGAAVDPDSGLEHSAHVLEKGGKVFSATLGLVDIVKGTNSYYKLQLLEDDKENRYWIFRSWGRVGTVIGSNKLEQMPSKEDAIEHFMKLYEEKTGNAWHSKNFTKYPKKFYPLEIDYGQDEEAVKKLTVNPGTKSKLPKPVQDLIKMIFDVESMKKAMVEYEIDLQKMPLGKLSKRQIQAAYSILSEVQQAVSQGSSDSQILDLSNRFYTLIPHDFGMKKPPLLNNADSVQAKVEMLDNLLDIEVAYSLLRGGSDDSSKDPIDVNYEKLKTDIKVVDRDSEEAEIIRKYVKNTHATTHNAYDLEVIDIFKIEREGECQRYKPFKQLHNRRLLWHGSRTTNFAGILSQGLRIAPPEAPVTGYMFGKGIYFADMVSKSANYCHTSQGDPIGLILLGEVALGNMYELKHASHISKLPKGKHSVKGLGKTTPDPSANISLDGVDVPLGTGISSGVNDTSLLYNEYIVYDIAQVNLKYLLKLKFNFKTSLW

[2] = target: SFB-tagged UL76 C terminus (human cytomegalovirus (HCMV)) (UniProt P16725)
[3] = target: Poly (ADP-ribose) polymerase 1 (PARP-1), endogenous in MRC-5 cells (human (endogenous in MRC-5)) (UniProt P09874)
[4] = target: SFB-tagged PARP-1 DM (deletion of the auto-modification domain) (human) (UniProt P09874)
[5] = target: SFB-tagged PARP-1 auto-modification domain (M) (human) (UniProt P09874)
[6] = target: SFB-tagged PARP-1 full length (FL) (human) (UniProt P09874)

GFP-tagged PARP-1 DB (BRCT domain deletion mutant) (from UniProt P09874) (enzyme)
binding [1]: no binding

Poly (ADP-ribose) polymerase 1 (PARP-1), endogenous in HEK293T cells (from UniProt P09874 1-1014) (enzyme)
binding [2]: binds | binding [1]: binds

GFP-tagged PARP-1 WT (from UniProt P09874 1-1014) (enzyme)
binding [1]: binds

B1: HCMV UL76 (virus-encoded, in HCMV-infected MRC-5 cells) (protein, UniProt P16725 1-325)
chain: T1 sequence
binding [3]: binds

B2: myc-tagged UL76 (protein, UniProt P16725 1-325)
chain: T1 sequence
binding [4]: no binding | binding [5]: binds | binding [6]: binds

Reference: publication PMC9501325
